From US5776901A, “Polypeptide analogues having growth hormone releasing activity” (Administrators of the Tulane Educational Fund, priority 1992, dated 1998)
Where “and” joins values, the source holds several entries; their conditions need not be identical. Identical values can stand only once. Part of at least one peptide drawing is inferred or uncertain, most often the ends. *1 amine or outer side, *2 acyl side, *3 side chain or, on linkers, in order; H or OH if unused. Where a SMILES comes first, the peptide text is derived from it. [ ]: non-standard residue; d: D form. X3 = CC(C)N([C@H](Cc1ccc2ccccc2c1)C(=O)[*:2])[*:1]; NMeW = CN[C@@H](Cc1c[nH]c2ccccc12)C(=O)O; 2Nal = N[C@@H](Cc1ccc2ccccc2c1)C(=O)O; d2Nal = N[C@H](Cc1ccc2ccccc2c1)C(=O)O; hPhe = N[C@@H](CCc1ccccc1)C(=O)O; Sar = CNCC(=O)O

System: serum growth hormone (GH)
Experiment: In vivo GH release in pentobarbital anesthetized rats, i.v. injection
Design: species or system rat
Conditions: sacrificed 10 min after injection, N = 6
Description: Immature female Sprague-Dawley rats were obtained from the Charles River Laboratories (Wilmington, Mass.). After arrival they were housed at 25° C. with a 14:10 hour light:dark cycle. Water and Purina rat chow were available ad libitum. Pups were kept with their mothers until 21 days of age.
Twenty-six day old rats, six rats per treatment group, were anesthetized interperitoneally with 50 mg/kg of pentobarbital 20 minutes prior to i.v. treatment with peptide. Normal saline with 0.1% gelatin was the vehicle for intravenous (i.v.) injections of the peptides. The anesthetized rats, weighing 55-65 grams, were injected i.v. with the quantity of growth hormone releasing compounds indicated in Table 3. Injection was made as a 0.1 mL solution into the jugular vein.
All animals were sacrificed by guillotine 10 minutes after the final test injection (see Table 3). Trunk blood for the determination of blood GH levels was collected following decapitation. After allowing the blood to clot, it was centrifuged and the serum was separated from the clot. Serum was kept frozen until the day of sampling for radioimmunoassay (RIA) determination of growth hormone levels according to the following procedure, as developed by the National Institute of Arthritis, Diabetes and Digestive and Kidney Diseases (NIADDK).
Reagents are generally added to the RIA analysis tubes at a single sitting, at refrigerator temperature (about 4° C.) in the following sequence:
(b) "cold" (i.e., non-radioactive) standard or unknown serum sample to be analyzed,
(c) radio-iodinated growth hormone antigen, and
(d) growth hormone antiserum.
Reagent addition is generally carried out so that there is achieved a final RIA tube dilution of about 1:30,000 (antiserum to total liquid volume; vol:vol).
The mixed reagents are then typically incubated at room temperature (about 25° C.) for about 24 hours prior to addition of a second antibody (e.g., goat or rabbit anti-monkey gamma globulin serum) which binds to and causes precipitation of the complexed growth hormone antiserum. Precipitated contents of the RIA tubes are then analyzed for the number of counts in a specified period of time in a gamma scintillation counter. A standard curve is prepared by plotting number of radioactive counts versus growth hormone (GH) level. GH levels of unknowns are then determined by reference to the standard curve.
Serum GH was measured by RIA with reagents provided by the National Hormone and Pituitary Program.
Serum levels in Table 3 are recorded in ng/mL in terms of the rat GH standard of 0.61 International Units/mg (IU/mg). Data is recorded as the mean +/- standard error of the mean (SEM). Statistical analysis was performed with Student's t-test. In Table 3 the results shown are the average of studies with six rats.
The procedure of Example 2 was repeated.

[1] = Table 3, total dose 0.1 μg i.v., mean
[2] = Table 3, total dose 0.3 μg i.v., mean
[3] = Table 3, total dose 1.0 μg i.v., mean
[4] = Table 5, total dose 0.30 μg i.v.
[5] = Table 5, total dose 1.00 μg i.v.
[6] = Table 5, total dose 3.00 μg i.v.
[7] = Table 5, total dose 10.00 μg i.v.
[8] = Table 6, total dose 0.30 μg i.v.
[9] = Table 6, total dose 1.00 μg i.v.
[10] = Table 5, total dose 0.10 μg i.v.
[11] = Table 3, total dose 3.0 μg i.v., mean
[12] = Table 3, total dose 10.0 μg i.v., mean
[13] = Table 6, total dose 0.10 μg i.v.

## C[C@H](NC(=O)[C@@H](Cc1ccc2ccccc2c1)NC(=O)[C@H](N)CC(N)=O)C(=O)N[C@@H](Cc1c[nH]c2ccccc12)C(=O)N[C@H](Cc1ccccc1)C(=O)N[C@@H](CCCCN)C(N)=O [DAsn-DβNal-Ala-Trp-DPhe-Lys-NH2] (H-[dN][d2Nal]AW[dF]K-NH2)
[1]
  GH Released Serum GH: 122 ng/mL
[2]
  GH Released Serum GH: 195 ng/mL
[3]
  GH Released Serum GH: 197 ng/mL

## CC(C)C[C@@H](NC(=O)[C@H](Cc1c[nH]c2ccccc12)NC(=O)[C@H](C)NC(=O)[C@@H](Cc1ccc2ccccc2c1)NC(=O)[C@@H](C)N)C(=O)N[C@@H](CCCCN)C(N)=O [DAla-DβNal-Ala-Trp-DLeu-Lys-NH2] (H-[dA][d2Nal]AW[dL]K-NH2)
[4]
  GH Released Serum GH: 202 ng/mL
[5]
  GH Released Serum GH: 165 ng/mL
[6]
  GH Released Serum GH: 307 ng/mL
[7]
  GH Released Serum GH: 1591 ng/mL
[8]
  GH Released Serum GH: 202 ng/mL
[9]
  GH Released Serum GH: 165 ng/mL
Table 6, total dose 3.00 μg i.v.
  GH Released Serum GH: 307 ng/mL
Table 6, total dose 10.00 μg i.v.
  GH Released Serum GH: 1591 ng/mL

## C[C@H](NC(=O)[C@@H](Cc1ccc2ccccc2c1)NC(=O)[C@@H](C)N)C(=O)N[C@@H](Cc1c[nH]c2ccccc12)C(=O)N[C@H](Cc1ccccc1)C(=O)N[C@@H](CCCCN)C(=O)O [DAla-DβNal-Ala-Trp-DPhe-Lys-OH] (H-[dA][d2Nal]AW[dF]K-OH)
Table 5, total dose 0.03 μg i.v.
  GH Released Serum GH: 300 ng/mL
[10]
  GH Released Serum GH: 558 ng/mL and 585 ng/mL
[4]
  GH Released Serum GH: 1730 ng/mL and 1202 ng/mL
[5]
  GH Released Serum GH: 2610 ng/mL

## CSCC[C@H](N)C(=O)N[C@H](Cc1ccc2ccccc2c1)C(=O)N[C@@H](C)C(=O)N[C@@H](Cc1c[nH]c2ccccc12)C(=O)N[C@H](Cc1ccccc1)C(=O)N[C@@H](CCCCN)C(N)=O [Met-DβNal-Ala-Trp-DPhe-Lys-NH2] (H-M[d2Nal]AW[dF]K-NH2)
[2]
  GH Released Serum GH: 181 ng/mL
[3]
  GH Released Serum GH: 226 ng/mL
[11]
  GH Released Serum GH: 316 ng/mL
[12]
  GH Released Serum GH: 1010 ng/mL

## NCCCC[C@H](NC(=O)[C@@H](Cc1ccccc1)NC(=O)[C@H](Cc1c[nH]c2ccccc12)NC(=O)CNC(=O)CNC(=O)[C@H](N)Cc1ccc2ccccc2c1)C(N)=O [DβNal-Gly-Gly-Trp-DPhe-Lys-NH2] (H-[d2Nal]GGW[dF]K-NH2)
[6]
  GH Released Serum GH: 417 ng/mL
[7]
  GH Released Serum GH: 397 ng/mL

## C[C@H](NC(=O)[C@@H](Cc1ccc2ccccc2c1)NC(=O)[C@@H](N)CCC(N)=O)C(=O)N[C@@H](Cc1c[nH]c2ccccc12)C(=O)N[C@H](Cc1ccccc1)C(=O)N[C@@H](CCCCN)C(N)=O [Gln-DβNal-Ala-Trp-DPhe-Lys-NH2] (H-Q[d2Nal]AW[dF]K-NH2)
[2]
  GH Released Serum GH: 124 ng/mL
[3]
  GH Released Serum GH: 340 ng/mL
[11]
  GH Released Serum GH: 476 ng/mL
[12]
  GH Released Serum GH: 673 ng/mL

## CC(C)N[C@H](Cc1ccc2ccccc2c1)C(=O)N[C@@H](C)C(=O)N[C@@H](Cc1c[nH]c2ccccc12)C(=O)N[C@H](Cc1ccccc1)C(=O)N[C@@H](CCCCN)C(N)=O [NαIsopropyl-DβNal-Ala-Trp-DPhe-Lys-NH2] (H-[X3]AW[dF]K-NH2)
[2]
  GH Released Serum GH: 541 ng/mL
[3]
  GH Released Serum GH: 972 ng/mL
[11]
  GH Released Serum GH: 1636 ng/mL

## C[C@H](NC(=O)[C@@H](Cc1ccc2ccccc2c1)NC(=O)[C@@H](C)N)C(=O)N[C@@H](CCc1ccccc1)C(=O)N[C@H](Cc1ccccc1)C(=O)N[C@@H](CCCCN)C(N)=O [DAla-DβNal-Ala-homoPhe-DPhe-LysNH2] (H-[dA][d2Nal]A[hPhe][dF]K-NH2)
Table 6, total dose 0.03 μg i.v.
  GH Released Serum GH: 214 ng/mL
[13]
  GH Released Serum GH: 214 ng/mL
[8]
  GH Released Serum GH: 406 ng/mL
[9]
  GH Released Serum GH: 1189 ng/mL

## COC(=O)[C@@H](Cc1ccccc1)NC(=O)[C@H](Cc1c[nH]c2ccccc12)NC(=O)[C@H](C)NC(=O)[C@@H](Cc1ccc2ccccc2c1)NC(=O)[C@H](C)N [Ala-DβNal-Ala-Trp-DPhe-OMe] (H-A[d2Nal]AW[dF]-OMe)
[2]
  GH Released Serum GH: 211 ng/mL
[3]
  GH Released Serum GH: 157 ng/mL
[11]
  GH Released Serum GH: 492 ng/mL
Table 3, total dose 30.0 μg i.v., mean
  GH Released Serum GH: 554 ng/mL

## C[C@H](N)C(=O)N[C@H](Cc1ccc2ccccc2c1)C(=O)N[C@@H](C)C(=O)N[C@@H](Cc1c[nH]c2ccccc12)C(=O)N[C@H](Cc1ccccc1)C(=O)N[C@@H](CCCCN)C(N)=O [Ala-DβNal-Ala-Trp-DPhe-Lys-NH2] (H-A[d2Nal]AW[dF]K-NH2)
[2]
  GH Released Serum GH: 363 ng/mL
[3]
  GH Released Serum GH: 1450 ng/mL
[11]
  GH Released Serum GH: 2072 ng/mL
[12]
  GH Released Serum GH: 2698 ng/mL

## C[C@@H](N)C(=O)N[C@H](Cc1ccc2ccccc2c1)C(=O)NCC(=O)NCC(=O)N[C@@H](Cc1c[nH]c2ccccc12)C(=O)N[C@H](Cc1ccccc1)C(=O)N[C@@H](CCCCN)C(N)=O [DAla-DβNal-Gly-Gly-Trp-DPhe-Lys-NH2] (H-[dA][d2Nal]GGW[dF]K-NH2)
[10]
  GH Released Serum GH: 95 ng/mL
[4]
  GH Released Serum GH: 82 ng/mL
[5]
  GH Released Serum GH: 177 ng/mL
[6]
  GH Released Serum GH: 223 ng/mL

## C[C@H](NC(=O)[C@@H](Cc1ccc2ccccc2c1)NC(=O)[C@@H](C)NC(=O)[C@@H](N)CCCNC(=N)N)C(=O)N[C@@H](Cc1c[nH]c2ccccc12)C(=O)N[C@H](Cc1ccccc1)C(=O)N[C@@H](CCCNC(=N)N)C(N)=O [Arg-DAla-DβNal-Ala-Trp-DPhe-ArgNH2] (H-R[dA][d2Nal]AW[dF]R-NH2)
[13]
  GH Released Serum GH: 155 ng/mL
[8]
  GH Released Serum GH: 247 ng/mL
[9]
  GH Released Serum GH: 276 ng/mL

## CNCC(=O)N[C@H](Cc1ccc2ccccc2c1)C(=O)N[C@@H](C)C(=O)N[C@@H](Cc1c[nH]c2ccccc12)C(=O)N[C@H](Cc1ccccc1)C(=O)N[C@@H](CCCCN)C(N)=O [Sar-DβNal-Ala-Trp-DPhe-Lys-NH2] (H-[Sar][d2Nal]AW[dF]K-NH2)
[2]
  GH Released Serum GH: 908 ng/mL
[3]
  GH Released Serum GH: 1681 ng/mL
[11]
  GH Released Serum GH: 2600 ng/mL

## C[C@H](NC(=O)[C@@H](Cc1c[nH]c2ccccc12)NC(=O)[C@@H](C)N)C(=O)N[C@@H](Cc1c[nH]c2ccccc12)C(=O)N[C@H](Cc1ccccc1)C(=O)N[C@@H](CCCCN)C(N)=O [DAla-DTrp-Ala-Trp-DPhe-Lys-NH2] (H-[dA][dW]AW[dF]K-NH2)
[1]
  GH Released Serum GH: 526 ng/mL
[2]
  GH Released Serum GH: 1608 ng/mL
[3]
  GH Released Serum GH: 2820 ng/mL
[11]
  GH Released Serum GH: 2437 ng/mL

## C[C@H](NC(=O)[C@@H](Cc1ccc2ccccc2c1)NC(=O)[C@H](N)Cc1c[nH]cn1)C(=O)N[C@@H](Cc1c[nH]c2ccccc12)C(=O)N[C@H](Cc1ccccc1)C(=O)N[C@@H](CCCCN)C(N)=O [DHis-DβNal-Ala-Trp-DPhe-Lys-NH2] (H-[dH][d2Nal]AW[dF]K-NH2)
[1]
  GH Released Serum GH: 386 ng/mL
[2]
  GH Released Serum GH: 605 ng/mL
[3]
  GH Released Serum GH: 930 ng/mL

## C[C@H](N)C(=O)N[C@H](Cc1ccc2ccccc2c1)C(=O)N[C@@H](C)C(=O)N(C)[C@@H](Cc1c[nH]c2ccccc12)C(=O)N[C@H](Cc1ccccc1)C(=O)N[C@@H](CCCCN)C(N)=O [Ala-DβNal-Ala-NMeTrp-DPhe-Lys-NH2] (H-A[d2Nal]A[NMeW][dF]K-NH2)
[1]
  GH Released Serum GH: 144 ng/mL
[2]
  GH Released Serum GH: 258 ng/mL
[3]
  GH Released Serum GH: 261 ng/mL
[11]
  GH Released Serum GH: 277 ng/mL

## C[C@H](NC(=O)[C@H](Cc1ccc2ccccc2c1)NC(=O)[C@@H](C)N)C(=O)N[C@@H](Cc1c[nH]c2ccccc12)C(=O)N[C@H](Cc1ccccc1)C(=O)N[C@@H](CCCCN)C(N)=O [DAla-LβNal-Ala-Trp-DPhe-Lys-NH2] (H-[dA][2Nal]AW[dF]K-NH2)
[1]
  GH Released Serum GH: 263 ng/mL
[2]
  GH Released Serum GH: 315 ng/mL
[3]
  GH Released Serum GH: 426 ng/mL
